# Reference: PubChem BioAssay AID588453 (National Center for Advancing Translational Sciences (NCATS), 2011)
# Hit rate of the full screen: of about 390,000 compounds, about 4,000 (1%) were called active. The shares of active, inactive and inconclusive entries below differ from those in the screen. Calls come from the whole dose curve; as a rule, active = well fitted inhibition curve with a large enough effect; inconclusive = small, poorly fitted or top-dose-only effect; inactive = no such curve, though single readings can be large or run the other way. Potencies of inconclusive entries are doubtful fits and often do not repeat.
# Target: Thioredoxin reductase 1, cytoplasmic (Rattus norvegicus) (UniProt O89049)
# Test: qHTS Assay for Inhibitors of Mammalian Selenoprotein Thioredoxin Reductase 1 (TrxR1): qHTS; note: nearly all actives have a fitted effect of over 65% in size
# Settings: recombinant rTrxR1, NADPH fluorescence consumption, selenite substrate; series mostly up to 114 µM; activity change, negative = inhibition: at the top concentration
# Summary of the method: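 Rat TrxR1 (90 nM in the dispensed reagent) was pre-reduced with 400 uM NADPH for 5 min at room temperature, then incubated with compound for 15 min. After 400 uM selenite was added, NADPH fluorescence (Ex 340/Em 450 nm) was followed for 8 min.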
# % is set by controls: 0 for no effect and ±100 for the full control effect; potency is the fitted concentration of half-maximal effect; tags give direction and shape of the fitted curve.
# UniProt O89049, sequence (O89049 whole entry, looked up): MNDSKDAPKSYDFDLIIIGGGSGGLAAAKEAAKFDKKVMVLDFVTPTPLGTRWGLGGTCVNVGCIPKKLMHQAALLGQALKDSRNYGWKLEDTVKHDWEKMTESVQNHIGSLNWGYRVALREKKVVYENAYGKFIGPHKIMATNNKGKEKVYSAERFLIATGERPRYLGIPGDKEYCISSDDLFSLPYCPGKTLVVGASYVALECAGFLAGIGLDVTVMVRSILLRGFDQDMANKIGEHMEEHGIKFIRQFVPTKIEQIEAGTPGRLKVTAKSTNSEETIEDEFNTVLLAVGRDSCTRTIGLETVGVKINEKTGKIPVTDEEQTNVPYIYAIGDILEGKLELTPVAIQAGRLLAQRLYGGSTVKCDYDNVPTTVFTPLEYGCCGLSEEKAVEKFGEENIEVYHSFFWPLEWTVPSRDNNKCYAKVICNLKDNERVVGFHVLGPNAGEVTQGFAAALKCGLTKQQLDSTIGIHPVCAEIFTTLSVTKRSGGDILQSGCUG
Compound,Potency,"activity change, negative = inhibition"
CCN(CC)C(NC(=O)Cc1ccccc1)C(Cl)(Cl)Cl (stereo not given),active: 7.94 µM,–
CCCn1c(O)c(CN2CCCC(C)C2)c(C)c(C#N)c1=O (stereo not given),"inconclusive: 70.8 µM [inhibitor, single point]",–
CCC1(CC)NC(=O)N(CC(=O)NC(=O)NCc2ccccc2)C1=O,"inconclusive: 28.2 µM [inhibitor, partial curve]",–
CC(/C=N/NC(=O)CSc1nc2ccccc2n1C)=C\c1ccco1,active: 79.4 µM,–
COc1ccc(NC(=O)Cn2c(-c3ccc(OC)cc3)cn(-c3ccc(C)cc3)c2=O)cc1,"inconclusive: 14.1 µM [inhibitor, partial curve, poor fit]",–
COc1ccc(-c2ccc3c(c2)C2CC3CCN2)cc1 (stereo not given),"inconclusive: 7.08 µM [inhibitor, single point]",–
COc1ccccc1/C=C(\C#N)c1nc(-c2cc3ccccc3oc2=O)cs1,"inconclusive: 89.1 µM [inhibitor, single point]",–
C=CCNC(=O)COCc1cc(-c2ccc3c(c2)OCO3)on1,"inconclusive: 56.2 µM [inhibitor, partial curve, poor fit]",–
FC(F)(F)c1ccccc1NC(=S)NC1CCN(Cc2ccccc2)CC1,"inconclusive: 39.8 µM [inhibitor, single point]",–
CCn1c(=N)c(C(=O)NCCCOC)cc2c(=O)n3cccc(C)c3nc21,"inconclusive: 14.1 µM [inhibitor, single point]",–
Cn1c(SCC(=O)NC(=O)Nc2ccccc2)nnc1-c1ccncc1,"inconclusive: 89.1 µM [inhibitor, single point]",–
CS(=O)(=O)c1nc(-c2ccccc2)cc(-c2ccccc2)c1C#N,"inconclusive: 3.16 µM [inhibitor, partial curve, poor fit]",–
Cc1onc(-c2ccccc2)c1C(=O)N/N=C/c1cc(Br)c(O)c(Br)c1,"inconclusive: 56.2 µM [inhibitor, partial curve, poor fit]",–
O=C1C=CC(=O)N1N(c1ccccc1)c1ccccc1,"inconclusive: 2.82 µM [inhibitor, full curve, poor fit]",–
Cc1ccc(C(=O)N2c3nc(-c4ccco4)nn3C3(CCCCC3)[C@@H]3CCCC[C@@H]32)cc1,"inconclusive: 50.1 µM [inhibitor, partial curve]",–
CC(C)c1[nH]nc2c1C1(CCN(Cc3ccccc3)CC1)C(C#N)=C(N)O2,"inconclusive: 56.2 µM [inhibitor, partial curve]",–
COC(=O)c1ccc(OCC2c3cc(OC)c(OC)cc3CCN2C(=O)c2cccc(C)c2)cc1 (stereo not given),–,inactive: -7.1% [at 57.1 µM]
CC(Sc1ccc([N+](=O)[O-])cn1)C(=O)Nc1nccs1 (stereo not given),–,inactive: -21.6%
Cc1c(C(O)CN2CCN(Cc3ccc4c(c3)OCO4)CC2)c2ccccc2n1C (stereo not given),"inconclusive: 3.16 µM [inhibitor, full curve]",–
COc1cccc(CNC(=O)Cn2c(=O)n3nc(-c4cccc(C)c4)nc3c3ccccc32)c1,–,inactive: 14.6% [at 57.1 µM]
CC(OC(=O)/C=C/c1ccco1)C(=O)Nc1cccc([N+](=O)[O-])c1 (stereo not given),"inconclusive: 44.7 µM [inhibitor, partial curve, poor fit]",–
S=c1cn[nH]c2ccccc12,"inconclusive: 12.6 µM [inhibitor, partial curve]",–
CS(=O)(=O)n1nc(OC(=O)c2cccs2)cc1N,"inconclusive: 56.2 µM [inhibitor, single point]",–
O=C(c1ccc(N2CCCC2)c([N+](=O)[O-])c1)N1CCN(S(=O)(=O)c2ccccc2)CC1,"inconclusive: 31.6 µM [inhibitor, single point]",–

Compound,Potency,"activity change, negative = inhibition"
Cc1ccc(-c2nn3c(-c4ccco4)nnc3c3ccccc23)cc1S(=O)(=O)NCC1CCCO1 (stereo not given),"inconclusive: 31.6 µM [inhibitor, single point]",–
CCn1c(CNc2nc(-c3ccccc3)cs2)nnc1SCC(=O)NCc1ccco1,"inconclusive: 44.7 µM [inhibitor, partial curve, poor fit]",–
COc1cccc(CN2CCNC(=O)C2CC(=O)NC2CCCCCCC2)c1 (stereo not given),"inconclusive: 79.4 µM [inhibitor, partial curve]",–
Cc1cc(C)cc(NS(=O)(=O)c2ccc(-c3cc(C)no3)cc2)c1,–,inactive: 20.3%
Cc1ccc(CCNC(=O)c2ccc3c(c2)N(Cc2cc(C)ccc2C)C(=O)c2ccccc2S3=O)cc1 (stereo not given),–,inactive: 33.3%
CCOC(=O)c1cccc(NS(=O)(=O)c2cc(Br)cc3c2N(C(=O)C2CC2)CC3)c1,"inconclusive: 70.8 µM [inhibitor, partial curve, poor fit]",–
C=CCn1c(SCc2nc3ccccc3nc2C)nnc1-c1ccoc1C,active: 44.7 µM,–
Cc1cc(Nc2ccccc2)n2nc(C)c(-c3ccccc3)c2n1,–,inactive: 32%
COc1ccc(CNC(=O)C(=O)NCc2cccnc2)cc1,–,inactive: 14.1%
O=C(CNC(=O)c1ccccc1F)Nc1ccc2c(c1)OCO2,–,inactive: 20.3%
Cc1ccc2cn[nH]c2c1NC(=S)NC(=O)c1ccccc1,"inconclusive: 35.5 µM [inhibitor, partial curve]",–
CC1CN(C2CCN(S(=O)(=O)c3ccc(F)cc3)CC2)CC(C)O1 (stereo not given),–,inactive: -10.5%
COc1ccc2nc(NC(=O)c3ccc([N+](=O)[O-])o3)sc2c1,–,inactive: -1.65% [at 57.1 µM]
OC(CCN1CC2CCC(CC2)C1)(Cc1ccccc1)c1ccco1 (stereo not given),"inconclusive: 22.4 µM [inhibitor, partial curve]",–
Cc1ccc(S(=O)(=O)N/N=C\c2ccc([N+](=O)[O-])o2)cc1C,"inconclusive: 56.2 µM [inhibitor, partial curve, poor fit]",–
Cc1c(C(=O)N2CCN(c3ncccn3)CC2)sc2nc3n(c(=O)c12)CCCC3,–,inactive: 0.871% [at 57.1 µM]
CCc1ccc(S(=O)(=O)NC(=S)NC2CCCCC2)cc1,active: 6.31 µM,–
Cc1c(C)c2ccc(O)c(CN3CCCC3)c2oc1=O,"inconclusive: 89.1 µM [inhibitor, single point]",–
CC1=C(C(=O)Nc2ccccc2)C(c2ccc(Cl)cc2)n2c(s/c(=C/c3cccc(OCC(=O)O)c3)c2=O)=N1 (stereo not given),–,inactive: -23.2%
Cc1ccc(C)c(OC2=NS(=O)(=O)c3ccccc32)c1,–,inactive: -18.8% [at 57.1 µM]
O=C(CCn1nnc2ccccc21)OCC(=O)c1ccc([N+](=O)[O-])cc1,–,inactive: 25.8%
Cc1ccc(C)n1-c1ccc(-c2ccnc(N)n2)cc1,"inconclusive: 25.1 µM [inhibitor, single point]",–
CSc1nnc(Cn2c(=O)sc3ccccc32)n1-c1ccccc1C,–,inactive: 13.6% [at 57.1 µM]
COc1ccc(N2C(=O)CC(Sc3nnnn3-c3ccc(F)cc3)C2=O)cc1 (stereo not given),"inconclusive: 28.2 µM [inhibitor, partial curve, poor fit]",–

Compound,Potency,"activity change, negative = inhibition"
CCCCNC(=O)CC1N=C2c3ccccc3N=C(SCC(=O)Nc3ccccc3OC)N2C1=O (stereo not given),–,inactive: 5.31%
COc1ccc(S(=O)(=O)N2CCOCC2)cc1NC(=O)CSc1nnc(C2CC2)n1C,–,inactive: 33%
O=[N+]([O-])c1cccc(S(=O)(=O)c2ccc(NCCO)c([N+](=O)[O-])c2)c1,"inconclusive: 15.8 µM [inhibitor, partial curve]",–
CC1(C)CC(CCN(Cc2ccccc2)C(=O)c2ccco2)(c2ccccc2)CCO1 (stereo not given),"inconclusive: 44.7 µM [inhibitor, partial curve, poor fit]",–
O=C(CNC(=O)c1cccc(Br)c1)N/N=C/c1cc(Br)cc(Br)c1O,"inconclusive: 89.1 µM [inhibitor, single point]",–
Cc1nc2nc(C)n(-c3ccccc3)c2s1,"inconclusive: 20 µM [inhibitor, single point]",–
CC(=O)Oc1ccc(C#C/C=C2\c3ccccc3C(=O)N2c2ccccc2)cc1,"inconclusive: 50.1 µM [inhibitor, partial curve, poor fit]",–
O=C1/C(=C\c2ccc(O)c(O)c2)SC(=S)N1Cc1ccccc1,–,inactive: -3.44% [at 57.1 µM]
Cc1cccc(C(=O)Oc2csc(=S)n2C(=O)c2cccc(C)c2)c1,"inconclusive: 2.24 µM [inhibitor, full curve]",–
CC(C)Oc1ccc(C(=O)NC(=S)Nc2ccc(CN3CCOCC3)cc2)cc1,"inconclusive: 25.1 µM [inhibitor, single point]",–
COc1cccc(C(=O)Nc2nc(-c3nnn(-c4cccc(Cl)c4C)c3C)ns2)c1,–,inactive: 9.52% [at 57.1 µM]
Cc1ccc2nc(SCC(=O)OCc3ccccc3)nc(=O)n2c1,–,inactive: 10.2%
COc1ccc(OC)c(-n2c(-c3cc(-c4ccccc4)n[nH]3)n[nH]c2=S)c1,"inconclusive: 50.1 µM [inhibitor, partial curve]",–
O=S(=O)(Cc1ccccc1)/C1=C(\N2CCOCC2)CCCCCC1,"inconclusive: 39.8 µM [inhibitor, single point]",–
O=C(N/N=C/c1ccc(N2CCCCC2)o1)c1ccccc1[N+](=O)[O-],active: 10 µM,–
CSc1ncccc1C(=O)NNc1cc(Cl)ccc1Cl,–,inactive: 1.05%
C=CCOc1cccc(C2C(C(=O)c3ccc(C)o3)=C(O)C(=O)N2Cc2ccncc2)c1 (stereo not given),"inconclusive: 14.1 µM [inhibitor, partial curve]",–
COc1ccc2cc3cc(C(=O)NCc4ccco4)oc3nc2c1,"inconclusive: 89.1 µM [inhibitor, single point]",–
Cc1nnc(SC2CC(=O)N(c3ccccc3)C2=O)s1 (stereo not given),"inconclusive: 31.6 µM [inhibitor, single point]",–
CCCN1C(=S)SC(C)(C)C1/[N+]([O-])=C/c1cccnc1 (stereo not given),–,inactive: -5.6%
CCC(=O)N1CCN=C1SCc1cc(C)ccc1C,–,inactive: 9.42%
COc1cc(C(=O)NC(=S)NNC(=O)c2cnccn2)cc(OC)c1OC,"inconclusive: 39.8 µM [inhibitor, partial curve]",–
